56 compounds from PMC4336329 (PLoS ONE, 2015) can be followed below.

About 14,000 (4.5%) of roughly 310,000 compounds showed an effect of 50% or more. The effect is printed as a negative number. Some of the results follow.
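Also: peak tail current of the secondary pulse compared with the same well before compound.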

human ether-à-go-go-related gene (hERG) potassium channel, sequence (Q12809 whole entry, looked up): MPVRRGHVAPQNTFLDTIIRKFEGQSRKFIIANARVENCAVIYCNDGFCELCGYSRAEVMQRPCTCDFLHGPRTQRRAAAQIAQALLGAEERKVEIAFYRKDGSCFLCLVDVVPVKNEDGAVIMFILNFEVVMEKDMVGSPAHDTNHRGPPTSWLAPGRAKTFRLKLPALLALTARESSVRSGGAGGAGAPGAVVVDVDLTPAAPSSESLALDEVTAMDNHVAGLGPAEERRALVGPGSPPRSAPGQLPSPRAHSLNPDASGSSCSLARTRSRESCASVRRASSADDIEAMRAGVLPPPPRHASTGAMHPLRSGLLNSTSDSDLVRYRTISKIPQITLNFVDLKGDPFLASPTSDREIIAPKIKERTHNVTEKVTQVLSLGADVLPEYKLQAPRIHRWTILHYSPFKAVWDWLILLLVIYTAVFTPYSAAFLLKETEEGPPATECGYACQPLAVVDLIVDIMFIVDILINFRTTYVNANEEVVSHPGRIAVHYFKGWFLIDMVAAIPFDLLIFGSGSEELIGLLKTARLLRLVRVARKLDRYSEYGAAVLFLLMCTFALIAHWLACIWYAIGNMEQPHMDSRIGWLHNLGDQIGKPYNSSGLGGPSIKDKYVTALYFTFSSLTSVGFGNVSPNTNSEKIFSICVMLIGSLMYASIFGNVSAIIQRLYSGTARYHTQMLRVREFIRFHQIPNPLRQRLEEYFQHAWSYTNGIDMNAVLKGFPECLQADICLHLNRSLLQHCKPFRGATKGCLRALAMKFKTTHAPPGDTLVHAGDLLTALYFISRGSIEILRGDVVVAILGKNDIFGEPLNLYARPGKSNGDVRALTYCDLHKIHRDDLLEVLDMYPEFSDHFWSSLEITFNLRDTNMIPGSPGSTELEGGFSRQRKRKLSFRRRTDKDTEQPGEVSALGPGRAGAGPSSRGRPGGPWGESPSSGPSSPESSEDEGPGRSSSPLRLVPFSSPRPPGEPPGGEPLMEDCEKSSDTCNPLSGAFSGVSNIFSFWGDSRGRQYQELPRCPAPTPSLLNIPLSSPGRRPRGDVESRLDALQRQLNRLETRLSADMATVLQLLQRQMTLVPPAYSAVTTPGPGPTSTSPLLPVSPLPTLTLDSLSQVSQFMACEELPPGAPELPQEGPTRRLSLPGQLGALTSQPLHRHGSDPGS

The experiment has as its target human ether-à-go-go-related gene (hERG) potassium channel (human, UniProt Q12809). Nature of the experiment: primary screen, population patch clamp on CHO cells stably expressing hERG.
In the case of `O=C(O)c1cc(-c2ccc(Br)s2)nc2ccccc12`, the “hERG current change (%, negative = inhibition) at 10uM” value came out at 29.2%.

For `CCN(CC)c1ccc(NC(=O)CCc2nnc3ccc(N4CCCCC4)nn23)c(C)c1`, the “hERG current change (%, negative = inhibition) at 10uM” value is -12.8%.

For `COc1ccccc1N1CCN(CC(C)N(C(=O)C2CCCCC2)c2ccccn2)CC1` (centres unmarked), the “hERG current change (%, negative = inhibition) at 10uM” value is -67.9%.

As for `Cc1cc(NC(=O)C2CC(=O)N(c3ccc(F)cc3)C2)no1` (centres unmarked), the “hERG current change (%, negative = inhibition) at 10uM” value was -6.47%.

For `O=C(CCc1nnc(C2CCCCC2)o1)NCc1cccc(-n2cccn2)c1`, the “hERG current change (%, negative = inhibition) at 10uM” value is listed as 1.8%.

For `CN(C)S(=O)(=O)c1cccc(NC(=S)NCc2ccco2)c1`, the “hERG current change (%, negative = inhibition) at 10uM” value is listed as 19.4%.

`COC(=O)C1CSC(C(=O)OC)N1C(=O)Nc1c(C)cccc1C` (centres unmarked): the “hERG current change (%, negative = inhibition) at 10uM” value is 3.69%.

Take `COc1cccc(OC)c1C(=O)OCC(=O)NCc1ccco1`: the “hERG current change (%, negative = inhibition) at 10uM” value came to 4.7%.

For `CC(C)[C@H](NC(=O)[C@@H]1Cc2ccccc2CN1)C(=O)Nc1ccc2c(c1)OCCO2`, the “hERG current change (%, negative = inhibition) at 10uM” value is on record as -30.2%.

Take `CCN(CC)CC(=O)Nc1sc(C)cc1C(=O)c1ccc(C)cc1`: the “hERG current change (%, negative = inhibition) at 10uM” value is on record as -2.07%.

Consider `O=C(CNC(=O)Cc1cccc2ccccc12)NCc1ccc(F)cc1`, for which the “hERG current change (%, negative = inhibition) at 10uM” value was 2.87%.

As to `CCOC(=O)C1(CCCc2ccccc2)CCN(C(=O)CN2CCOC2=O)CC1`, the “hERG current change (%, negative = inhibition) at 10uM” value is 6.35%.

Take `Oc1oc(-c2ccccc2)nc1/C=N/c1ccccn1`: the “hERG current change (%, negative = inhibition) at 10uM” value is given as 8.56%.

On to `COc1ccc(S(=O)(=O)NC2CC(=O)N(c3ccc(C)c(C)c3)C2)cc1C` (centres unmarked), for which the “hERG current change (%, negative = inhibition) at 10uM” value is on record as -9.62%.

Take `COc1ccc(Cl)cc1C(=O)C1CCCN(Cc2cnc(N3CCOCC3)s2)C1` (centres unmarked): the “hERG current change (%, negative = inhibition) at 10uM” value is listed as -57.6%.

On to `CCCS(=O)(=O)N1CCN(C(=O)CCC2CCCC2)CC1`, for which the “hERG current change (%, negative = inhibition) at 10uM” value is -5.88%.

For the compound `COc1cc2c(cc1OC)-c1nnc(-c3cccs3)n1C1(CCCC1)C2`, the “hERG current change (%, negative = inhibition) at 10uM” value is -16.8%.

For `NC1=NC(=O)C(Cc2ccccc2)S1` (centres unmarked), the “hERG current change (%, negative = inhibition) at 10uM” value is recorded as 2.01%.

As for `CCn1cc(/C=C(\NC(=O)c2ccccc2F)C(=O)N2CCCC2)c2ccccc21`, the “hERG current change (%, negative = inhibition) at 10uM” value is -16.2%.

On to `CCc1nnc(NC(=O)C2COc3ccccc3O2)s1` (centres unmarked), for which the “hERG current change (%, negative = inhibition) at 10uM” value was -0.739%.

In the case of `CC1(C)C(C(=O)NN2C(=O)c3ccccc3C2=O)C1(C)C`, the “hERG current change (%, negative = inhibition) at 10uM” value was determined as 12.2%.

Take `C=CCn1c(SCC(N)=O)nc2scc(-c3ccc(C)o3)c2c1=O`: the “hERG current change (%, negative = inhibition) at 10uM” value is -3.83%.

In the case of `COc1ccc(/C=C\c2nc(O)c([N+](=O)[O-])c(=O)[nH]2)cc1O`, the “hERG current change (%, negative = inhibition) at 10uM” value worked out at 5.88%.

On to `CCOC(=O)c1c(S(=O)(=O)NCC(=O)NCc2ccccc2Cl)c(C)n(C)c1C`, for which the “hERG current change (%, negative = inhibition) at 10uM” value is recorded as -47.4%.

As to `CC12CC(NC(=O)N1Cc1ccccc1)c1ccccc1O2` (centres unmarked), the “hERG current change (%, negative = inhibition) at 10uM” value is given as -6.03%.

Regarding `O=C(c1cccc(S(=O)(=O)N2CCCCC2)c1)N1CCOCC1`, the “hERG current change (%, negative = inhibition) at 10uM” value came out at 10.2%.

Regarding `CCCCCCNC(=O)c1cccc(-c2ccc(C)c3ccccc23)n1`, the “hERG current change (%, negative = inhibition) at 10uM” value stood at 0.747%.

Turning to `Cc1nc(NC(=O)c2ccco2)sc1-c1csc(Nc2ccc(Cl)cc2)n1`, the “hERG current change (%, negative = inhibition) at 10uM” value came to 14.1%.

`Cc1c(CNC2CCCC(C)C2C)c(C(=O)O)c(C)n1Cc1ccccc1` (centres unmarked): the “hERG current change (%, negative = inhibition) at 10uM” value is reported as -3.24%.

Consider `Cc1cccc(NC(=S)N/N=C/c2ccc([N+](=O)[O-])s2)c1`, for which the “hERG current change (%, negative = inhibition) at 10uM” value is given as 8.4%.

Consider `CS(=O)(=O)N(Cc1ccco1)CC(O)Cn1cc(C=O)c2ccccc21` (centres unmarked), for which the “hERG current change (%, negative = inhibition) at 10uM” value stood at 0.402%.

Take `COCCOC(=O)c1[nH]c2c(c1C)C(=O)CC(c1ccco1)C2` (centres unmarked): the “hERG current change (%, negative = inhibition) at 10uM” value is -5.52%.

Take `CC1CCN(CCC(=O)Nc2ccc(F)c(F)c2)CC1`: the “hERG current change (%, negative = inhibition) at 10uM” value was -26.6%.

As to `Cc1ccc(S(=O)(=O)NCC(=O)OCC(=O)N(C)C2CCS(=O)(=O)C2)cc1` (centres unmarked), the “hERG current change (%, negative = inhibition) at 10uM” value was found to be 8.47%.

Consider `CC(Oc1ccc(C(=O)NC2CCCCC2)cc1)C(=O)O` (centres unmarked), for which the “hERG current change (%, negative = inhibition) at 10uM” value is recorded as 12.3%.

Regarding `O=C1c2ccccc2C(=O)N1CCCCSc1nnc2ccccn12`, the “hERG current change (%, negative = inhibition) at 10uM” value is listed as -22.7%.

Regarding `NC(=O)c1ccc(-n2nnnc2SCC(=O)Nc2ccc(F)cc2)cc1`, the “hERG current change (%, negative = inhibition) at 10uM” value worked out at 21.4%.

As for `COC(=O)c1cc(C(=O)OC)cc(N2C(=O)CC(Sc3nc(C)cc(C)n3)C2=O)c1` (centres unmarked), the “hERG current change (%, negative = inhibition) at 10uM” value was -13.6%.

Turning to `CC1CCCN(S(=O)(=O)c2ccc([N+](=O)[O-])cc2)C1` (centres unmarked), the “hERG current change (%, negative = inhibition) at 10uM” value is 7.9%.

As to `COC(=O)C1=C(c2ccc(F)cc2F)C[C@@H]2CC[C@H]1N2C(=O)NCc1ccco1`, the “hERG current change (%, negative = inhibition) at 10uM” value came out at 2.23%.

With `CC(c1ccccc1)N(NC(=O)C(O)(c1ccccc1)c1ccccc1)C(=O)c1ccccc1` (centres unmarked), the “hERG current change (%, negative = inhibition) at 10uM” value is -4.24%.

Turning to `O=C(CSC1=NC(=O)C(c2ccccc2)C(=O)N1)Nc1ccccc1Cl` (centres unmarked), the “hERG current change (%, negative = inhibition) at 10uM” value was determined as 12.7%.

Take `CC(=O)Nc1c(NCC(C)C)c2ccccc2oc1=O`: the “hERG current change (%, negative = inhibition) at 10uM” value is on record as 16.7%.

As to `CC(C)NC(=NCc1ccc(Cl)cc1Cl)Nc1ccccc1`, the “hERG current change (%, negative = inhibition) at 10uM” value is on record as -53%.

Turning to `O=C(c1ccccc1Br)N1N=C(c2ccccc2)CC1c1ccccc1F` (centres unmarked), the “hERG current change (%, negative = inhibition) at 10uM” value came out at 15.7%.

As to `O=c1[nH]c(=S)[nH]c(O)c1N=Nc1ccc2c(c1)OCCO2`, the “hERG current change (%, negative = inhibition) at 10uM” value was 18.2%.

Regarding `CC(C)(C)c1ccc(NC(=S)NCCc2ccccn2)cc1`, the “hERG current change (%, negative = inhibition) at 10uM” value worked out at 5.62%.

Turning to `O=C(/C=C/c1cc([N+](=O)[O-])ccc1OC(F)F)Nc1cccc([N+](=O)[O-])c1`, the “hERG current change (%, negative = inhibition) at 10uM” value is on record as 1.95%.

As for `CCOC(=O)CC1=C(C(=O)OCC)C(c2ccc(OC)c(OC)c2)C(C#N)=C(N)O1` (centres unmarked), the “hERG current change (%, negative = inhibition) at 10uM” value is -12.8%.

Consider `COc1ccccc1C(=O)C1CCCN(C(=O)c2ccc(C(C)=O)s2)C1` (centres unmarked), for which the “hERG current change (%, negative = inhibition) at 10uM” value is -3.02%.

In the case of `O=C(NCC1CCCO1)c1nn2c(C(F)(F)F)cc(-c3cccs3)nc2c1Br` (centres unmarked), the “hERG current change (%, negative = inhibition) at 10uM” value is recorded as -6.14%.

Take `O=C(N/N=C/c1ccc2nccnc2c1)c1ccccc1O`: the “hERG current change (%, negative = inhibition) at 10uM” value was -1.86%.

Turning to `COC(=O)/C=C1\S/C(=N/NC(=O)c2ccccc2)NC1=O`, the “hERG current change (%, negative = inhibition) at 10uM” value is 11.1%.

As for `Cc1ccc(Cl)cc1N1CCN(C(=O)Cn2ccc3ccccc3c2=O)CC1`, the “hERG current change (%, negative = inhibition) at 10uM” value is listed as -8.08%.

In the case of `COc1cc(NC(=O)CN2C(=O)COc3ccc(S(=O)(=O)N4CCOCC4)cc32)cc(OC)c1`, the “hERG current change (%, negative = inhibition) at 10uM” value stood at 17.5%.

Consider `COc1ccc(C2=CC3=C(Br)C(=O)C(C)(O)C(=O)C3=CO2)cc1` (centres unmarked), for which the “hERG current change (%, negative = inhibition) at 10uM” value is 11.9%.
